Test results from US20170082635A1 (University of California, published 2017).

Target: T1, Neurofilament medium polypeptide (human, UniProt P07197 2-916)
T1 construct: whole, on cells; endogenous, cross-linked inside intact HEK 293 cells; also called NFM; P07197
T1 sequence (looked up): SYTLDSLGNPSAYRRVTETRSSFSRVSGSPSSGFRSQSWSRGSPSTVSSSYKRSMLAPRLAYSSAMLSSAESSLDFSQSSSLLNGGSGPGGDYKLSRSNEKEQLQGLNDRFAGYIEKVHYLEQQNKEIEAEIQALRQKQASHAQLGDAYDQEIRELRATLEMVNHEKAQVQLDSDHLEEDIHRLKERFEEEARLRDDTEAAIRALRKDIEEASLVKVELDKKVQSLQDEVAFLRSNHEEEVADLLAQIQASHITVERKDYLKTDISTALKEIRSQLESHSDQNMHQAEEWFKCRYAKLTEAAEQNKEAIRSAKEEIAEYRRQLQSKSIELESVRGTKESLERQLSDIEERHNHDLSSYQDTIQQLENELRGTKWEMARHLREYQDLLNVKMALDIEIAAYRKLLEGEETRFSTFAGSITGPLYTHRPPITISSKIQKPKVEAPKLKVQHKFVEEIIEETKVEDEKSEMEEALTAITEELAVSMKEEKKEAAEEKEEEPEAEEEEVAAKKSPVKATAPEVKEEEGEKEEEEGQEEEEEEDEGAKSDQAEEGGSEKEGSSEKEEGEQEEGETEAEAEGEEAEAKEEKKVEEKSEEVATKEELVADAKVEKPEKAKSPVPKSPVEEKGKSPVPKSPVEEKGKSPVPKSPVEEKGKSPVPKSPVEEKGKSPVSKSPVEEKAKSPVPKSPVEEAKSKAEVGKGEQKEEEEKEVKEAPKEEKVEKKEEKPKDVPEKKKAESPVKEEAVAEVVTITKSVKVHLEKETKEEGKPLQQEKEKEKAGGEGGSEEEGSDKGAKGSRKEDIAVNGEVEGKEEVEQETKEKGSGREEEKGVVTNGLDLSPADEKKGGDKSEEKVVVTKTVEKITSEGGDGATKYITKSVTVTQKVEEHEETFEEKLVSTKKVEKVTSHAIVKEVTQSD
Assay: in vivo azide-A-DSBSO XL-MS, HEK 293; column Inter-subunit of Table 10

B1: Vimentin (other)
chain: not shown
notes: whole, on cells; endogenous, cross-linked inside intact HEK 293 cells; also called […]
  binding result: binds
